Experimental findings from the supplement of paper PMC10369915 are described below.

The other results are listed elsewhere or left out. Rule as the data show it: active = 3.2 or more and inactive = the rest. The signal is at background level for most entries.
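Also: displayed peptides selected on beads carrying the immobilized SH2 domain, with library peptides lacking any tyrosine serving as negative controls.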

In one assay the target is SHP2 C-SH2 domain E139D. Description: enrichment score (SH2-bound / input frequency) (ratio); bacterial display of known human phosphotyrosine sites (pTyr-Var adds point mutants) read by sequencing; higher = stronger binding; tyrosines were phosphorylated by kinases first. To be noted: peptide library: pTyr-Var.
For RNFVRYVQGLK [VWF_Y1400], the enrichment score is inactive: 0.643.
On to CVAARYMDMKG [WFIKKN2_Y93_V96M], for which the enrichment score is inactive: 0.635.
On to QSQQAYQEAFE [YWHAZ_Y149], for which the enrichment score was inactive: 0.905.
As to NGQALYAACQT [XDH_Y1092_V1091L], the enrichment score was inactive: 0.756.
Regarding IEPGIYIPEDD [XPNPEP3_Y455], the enrichment score was inactive: 0.669.
As to KIMVIYDGACQ [VWDE_Y1035_T1032M], the enrichment score is inactive: 0.728.
Regarding PTKNDYWAMLA [WWOX_Y287], the enrichment score is inactive: 0.926.
For KIDAKYKKKIK [WDR19_Y1230_E1235K], the enrichment score was inactive: 0.585.
On the same count and under the same terms, with AEFGLYAAMVR [VSX2_Y222_G223A_YF] the figure was inactive: 0.958; with RLGDLYKEEMR [VIM_Y150_E151K], inactive: 1.1; with AEFGLYGAMVW [VSX2_Y222_R227W_YF], inactive: 0.772.
As to AFGNLYGSRKQ [YIPF7_Y59_YF], the enrichment score was inactive: 0.445.
In the case of KTEMLYHLTAR [XRCC2_Y59], the enrichment score is inactive: 1.03.
The same measure, in the same setting: with KMKGDYFCFLA [YWHAG_Y130_R132C_YF] the figure was inactive: 1.5.
For the molecule AKLDIYKRKVE [VWA3B_Y918_N916D], the enrichment score was inactive: 0.77.
Regarding AAILGYCHGEA [XPC_Y669_R671H], the enrichment score was inactive: 0.831.
Same read-out and setting: the value for GEYYRYLAEVA [YWHAG_Y133_D129E] was inactive: 0.908.
As for QKLPSYILENN [VPS13B_Y2774], the enrichment score was inactive: 1.19.
The same measure, in the same setting: with MKGDYYCYLAE [YWHAG_Y131_R132C] the figure was inactive: 1.41.

The target of the next assay is SHP2 C-SH2 domain wild-type. The assay is described as above. To be noted: peptide library: pTyr-Var.
Turning to RNFVRYVQGLK [VWF_Y1400], the enrichment score is inactive: 0.594.
Regarding CVAARYMDMKG [WFIKKN2_Y93_V96M], the enrichment score is inactive: 0.799.
As to QSQQAYQEAFE [YWHAZ_Y149], the enrichment score is inactive: 0.765.
As for NGQALYAACQT [XDH_Y1092_V1091L], the enrichment score is inactive: 0.642.
Turning to IEPGIYIPEDD [XPNPEP3_Y455], the enrichment score is inactive: 0.584.
On the same count and under the same terms, with KIMVIYDGACQ [VWDE_Y1035_T1032M] the figure was inactive: 1.18.
PTKNDYWAMLA [WWOX_Y287]: the enrichment score is inactive: 0.743.
For KIDAKYKKKIK [WDR19_Y1230_E1235K], the enrichment score was inactive: 0.692.
For AEFGLYAAMVR [VSX2_Y222_G223A_YF], the enrichment score is inactive: 1.16.
Regarding RLGDLYKEEMR [VIM_Y150_E151K], the enrichment score was inactive: 0.651.
Consider AEFGLYGAMVW [VSX2_Y222_R227W_YF], for which the enrichment score was inactive: 1.12.
For AFGNLYGSRKQ [YIPF7_Y59_YF], the enrichment score was inactive: 0.365.
Same read-out and setting: with KTEMLYHLTAR [XRCC2_Y59] the figure was inactive: 0.772; with KMKGDYFCFLA [YWHAG_Y130_R132C_YF], inactive: 1.71.
As for AKLDIYKRKVE [VWA3B_Y918_N916D], the enrichment score is inactive: 0.836.
For the molecule AAILGYCHGEA [XPC_Y669_R671H], the enrichment score is inactive: 1.06.
In the case of GEYYRYLAEVA [YWHAG_Y133_D129E], the enrichment score was inactive: 0.806.
Regarding QKLPSYILENN [VPS13B_Y2774], the enrichment score was inactive: 1.05.
MKGDYYCYLAE [YWHAG_Y131_R132C]: the enrichment score is inactive: 1.7.

Another assay addresses SHP2 N-SH2 domain L43F. Described as above. The settings on record: peptide library: pTyr-Var.
Regarding RNFVRYVQGLK [VWF_Y1400], the enrichment score was inactive: 0.62.
With CVAARYMDMKG [WFIKKN2_Y93_V96M], the enrichment score was inactive: 0.738.
As for QSQQAYQEAFE [YWHAZ_Y149], the enrichment score was inactive: 0.908.
For the molecule NGQALYAACQT [XDH_Y1092_V1091L], the enrichment score is inactive: 0.626.
On to IEPGIYIPEDD [XPNPEP3_Y455], for which the enrichment score was inactive: 0.746.
For the molecule KIMVIYDGACQ [VWDE_Y1035_T1032M], the enrichment score is inactive: 1.04.
Turning to PTKNDYWAMLA [WWOX_Y287], the enrichment score is inactive: 1.
Regarding KIDAKYKKKIK [WDR19_Y1230_E1235K], the enrichment score was inactive: 0.63.
For the molecule AEFGLYAAMVR [VSX2_Y222_G223A_YF], the enrichment score is inactive: 0.796.
Consider RLGDLYKEEMR [VIM_Y150_E151K], for which the enrichment score is inactive: 1.12.
With AEFGLYGAMVW [VSX2_Y222_R227W_YF], the enrichment score is inactive: 0.906.
On to AFGNLYGSRKQ [YIPF7_Y59_YF], for which the enrichment score was inactive: 0.503.
Consider KTEMLYHLTAR [XRCC2_Y59], for which the enrichment score was inactive: 0.895.
Take KMKGDYFCFLA [YWHAG_Y130_R132C_YF]: the enrichment score was inactive: 1.64.
The same measure, in the same setting: the value for AKLDIYKRKVE [VWA3B_Y918_N916D] was inactive: 0.809; that for AAILGYCHGEA [XPC_Y669_R671H] was inactive: 0.94; that for GEYYRYLAEVA [YWHAG_Y133_D129E] was inactive: 0.811.
With QKLPSYILENN [VPS13B_Y2774], the enrichment score was inactive: 0.936.
The same measure, in the same setting: the value for MKGDYYCYLAE [YWHAG_Y131_R132C] was inactive: 1.15.

The target in the next assay is SHP2 N-SH2 domain T42A. The assay is described as above. The settings on record: peptide library: pTyr-Var.
On to RNFVRYVQGLK [VWF_Y1400], for which the enrichment score was inactive: 0.506.
On to CVAARYMDMKG [WFIKKN2_Y93_V96M], for which the enrichment score was inactive: 0.586.
As to QSQQAYQEAFE [YWHAZ_Y149], the enrichment score was inactive: 0.686.
Consider NGQALYAACQT [XDH_Y1092_V1091L], for which the enrichment score was inactive: 0.736.
In the case of IEPGIYIPEDD [XPNPEP3_Y455], the enrichment score was inactive: 0.563.
Regarding KIMVIYDGACQ [VWDE_Y1035_T1032M], the enrichment score was inactive: 0.909.
Still for that read-out and setting: with PTKNDYWAMLA [WWOX_Y287] the figure was inactive: 0.804; with KIDAKYKKKIK [WDR19_Y1230_E1235K], inactive: 0.837.
As for AEFGLYAAMVR [VSX2_Y222_G223A_YF], the enrichment score is inactive: 0.757.
Turning to RLGDLYKEEMR [VIM_Y150_E151K], the enrichment score is inactive: 0.752.
In the case of AEFGLYGAMVW [VSX2_Y222_R227W_YF], the enrichment score was inactive: 0.672.
Still for that read-out and setting: the value for AFGNLYGSRKQ [YIPF7_Y59_YF] was inactive: 0.551; that for KTEMLYHLTAR [XRCC2_Y59] was inactive: 0.889.
The same measure, in the same setting: with KMKGDYFCFLA [YWHAG_Y130_R132C_YF] the figure was inactive: 1.43; with AKLDIYKRKVE [VWA3B_Y918_N916D], inactive: 0.646.
AAILGYCHGEA [XPC_Y669_R671H]: the enrichment score is inactive: 0.856.
Still for that read-out and setting: with GEYYRYLAEVA [YWHAG_Y133_D129E] the figure was inactive: 0.996.
The same measure, in the same setting: with QKLPSYILENN [VPS13B_Y2774] the figure was inactive: 1.13.
Turning to MKGDYYCYLAE [YWHAG_Y131_R132C], the enrichment score was inactive: 0.878.

The target in a further assay is SHP2 N-SH2 domain T52S. The assay is described as above. The settings on record: peptide library: pTyr-Var.
With RNFVRYVQGLK [VWF_Y1400], the enrichment score is inactive: 0.571.
Regarding CVAARYMDMKG [WFIKKN2_Y93_V96M], the enrichment score is inactive: 0.736.
Take QSQQAYQEAFE [YWHAZ_Y149]: the enrichment score is inactive: 0.867.
On the same count and under the same terms, the value for NGQALYAACQT [XDH_Y1092_V1091L] was inactive: 0.775; that for IEPGIYIPEDD [XPNPEP3_Y455] was inactive: 0.668.
With KIMVIYDGACQ [VWDE_Y1035_T1032M], the enrichment score was inactive: 0.764.
For PTKNDYWAMLA [WWOX_Y287], the enrichment score is inactive: 0.949.
For the molecule KIDAKYKKKIK [WDR19_Y1230_E1235K], the enrichment score is inactive: 0.663.
As to AEFGLYAAMVR [VSX2_Y222_G223A_YF], the enrichment score was inactive: 0.997.
For the molecule RLGDLYKEEMR [VIM_Y150_E151K], the enrichment score was inactive: 1.12.
AEFGLYGAMVW [VSX2_Y222_R227W_YF]: the enrichment score is inactive: 0.658.
As for AFGNLYGSRKQ [YIPF7_Y59_YF], the enrichment score was inactive: 0.464.
Regarding KMKGDYFCFLA [YWHAG_Y130_R132C_YF], the enrichment score was inactive: 1.56.
Still for that read-out and setting: with AKLDIYKRKVE [VWA3B_Y918_N916D] the figure was inactive: 0.774; with AAILGYCHGEA [XPC_Y669_R671H], inactive: 0.94; with GEYYRYLAEVA [YWHAG_Y133_D129E], inactive: 0.628.
Consider QKLPSYILENN [VPS13B_Y2774], for which the enrichment score is inactive: 0.964.
On to MKGDYYCYLAE [YWHAG_Y131_R132C], for which the enrichment score is inactive: 0.886.

Another assay has as its target SHP2 N-SH2 domain wild-type. Described as above. The settings on record: peptide library: pTyr-Var.
Take RNFVRYVQGLK [VWF_Y1400]: the enrichment score is inactive: 0.472.
As to CVAARYMDMKG [WFIKKN2_Y93_V96M], the enrichment score was inactive: 0.868.
QSQQAYQEAFE [YWHAZ_Y149]: the enrichment score is inactive: 0.853.
The same measure, in the same setting: with NGQALYAACQT [XDH_Y1092_V1091L] the figure was inactive: 0.996; with IEPGIYIPEDD [XPNPEP3_Y455], inactive: 2.08; with KIMVIYDGACQ [VWDE_Y1035_T1032M], inactive: 1.18.
Take PTKNDYWAMLA [WWOX_Y287]: the enrichment score is inactive: 0.915.
On the same count and under the same terms, the value for KIDAKYKKKIK [WDR19_Y1230_E1235K] was inactive: 0.52; that for AEFGLYAAMVR [VSX2_Y222_G223A_YF] was inactive: 1.21.
Take RLGDLYKEEMR [VIM_Y150_E151K]: the enrichment score is inactive: 1.17.
Still for that read-out and setting: with AEFGLYGAMVW [VSX2_Y222_R227W_YF] the figure was inactive: 1.17; with AFGNLYGSRKQ [YIPF7_Y59_YF], inactive: 0.504.
As for KTEMLYHLTAR [XRCC2_Y59], the enrichment score was inactive: 0.859.
Turning to KMKGDYFCFLA [YWHAG_Y130_R132C_YF], the enrichment score was inactive: 1.61.
As to AKLDIYKRKVE [VWA3B_Y918_N916D], the enrichment score is inactive: 0.983.
As to AAILGYCHGEA [XPC_Y669_R671H], the enrichment score was inactive: 0.944.
Consider GEYYRYLAEVA [YWHAG_Y133_D129E], for which the enrichment score was inactive: 0.921.
In the case of QKLPSYILENN [VPS13B_Y2774], the enrichment score is inactive: 1.47.
The same measure, in the same setting: the value for MKGDYYCYLAE [YWHAG_Y131_R132C] was inactive: 2.75.
